# Data from patent US20230135471A1 (INTEGRATED DNA TECHNOLOGIES, published 2023).
# Substitutions are numbered along the chain they refer to.
# B1: CM1, His-tagged (designed binder)
# chain: MHHHHHHGGSGMLIFVRMLTGKMIELEVEPSDTIENVKAKIQDHEGIPPDQQRLAFQGKSLEDGRTLSDYNILKDPKKMPLLRLR
# B2: i53 with N-terminal His tag and short flexible linker (designed binder)
# chain: B1 chain with R17K, M18T, M23T, E25T, H44K, Q57A, P76S, K78L, M79H
# B3: CM7, His-tagged (designed binder)
# chain: B1 chain with M18T, M23T, E25T, K78L, M79H
# B4: CM13, His-tagged (designed binder)
# chain: B1 chain with R17K, M23T, H44K, P76S, M79H
# B5: CM26, His-tagged (designed binder)
# chain: B1 chain with R17K, M18T, E25T, P76S, K78L
# Legend:
# [1] = target: MBP tagged 53BP1 fragment (a.a. 1484-1603); assay: BLI, Ubv on Ni-NTA tip, 1:1 global fit
# [2] = target: MBP tagged 53BP1 fragment (a.a. 1484-1603); assay: BLI, 0.5125 µM 53BP1 fragment
# [3] = target: MBP tagged 53BP1 fragment (a.a. 1484-1603); assay: BLI, 5.13 µM 53BP1 fragment
# [4] = target: MBP tagged 53BP1 fragment (a.a. 1484-1603); assay: BLI, 2.05 µM 53BP1 fragment
# [5] = target: MBP tagged 53BP1 fragment (a.a. 1484-1603); assay: BLI, 1.03 µM 53BP1 fragment
# [6] = target: MBP tagged 53BP1 fragment (a.a. 1484-1603); assay: BLI, 360 s association, 1:1 global fit
# [7] = target: MBP tagged 53BP1 fragment (a.a. 1484-1603); assay: BLI, 0.128 µM 53BP1 fragment
# [8] = target: MBP tagged 53BP1 fragment (a.a. 1484-1603); assay: BLI response vs 53BP1 fragment concentration, one site-specific binding fit, R2 .98
# [9] = target: MBP tagged 53BP1 fragment (a.a. 1484-1603); assay: BLI, 0.2562 µM 53BP1 fragment
# [10] = target: MBP tagged 53BP1 fragment (a.a. 1484-1603); assay: BLI, 0.5 µM 53BP1 fragment
# [11] = target: MBP tagged 53BP1 fragment (a.a. 1484-1603); assay: BLI, 0.125 µM 53BP1 fragment
# [12] = target: MBP tagged 53BP1 fragment (a.a. 1484-1603); assay: BLI response vs 53BP1 fragment concentration, one site-specific binding fit, R2 .99
# [13] = target: MBP tagged 53BP1 fragment (a.a. 1484-1603); assay: BLI, 1 µM 53BP1 fragment
# [14] = target: MBP tagged 53BP1 fragment (a.a. 1484-1603); assay: BLI, 2 µM 53BP1 fragment
# [15] = target: MBP tagged 53BP1 fragment (a.a. 1484-1603); assay: BLI, 5 µM 53BP1 fragment
# [16] = target: MBP tagged 53BP1 fragment (a.a. 1484-1603); assay: BLI, 90 s association, 1:1 global fit
# [17] = target: MBP tagged 53BP1 fragment (a.a. 1484-1603); assay: BLI, 20 µM 53BP1 fragment
# [18] = target: MBP tagged 53BP1 fragment (a.a. 1484-1603); assay: BLI, 0.25 µM 53BP1 fragment
# [19] = target: MBP tagged 53BP1 fragment (a.a. 1484-1603); assay: BLI response vs 53BP1 fragment concentration, one site-specific binding fit, R2 .97
Binder,Kd [1],koff [1],kon [1],Response [2],Response [3],Response [4],Response [5],Kd [6],koff [6],kon [6],Response [7],Response [9],also measured
B1,0.021 µM,0.00309 s⁻¹,147000 M⁻¹ s⁻¹,1.07,1.38,1.31,1.25,0.0235 µM,0.00254 s⁻¹,108000 M⁻¹ s⁻¹,0.724,0.888,Kd [8]: 0.064 µM
B2,5.92 µM,0.0887 s⁻¹,15000 M⁻¹ s⁻¹,,,,,,,,,,Response [10]: 0.0627; Response [11]: 0.0006; Kd [12]: 3.08 µM; Response [13]: 0.126; Response [14]: 0.221; Response [15]: 0.34; Kd [16]: 3.87 µM; koff [16]: 0.0892 s⁻¹; kon [16]: 23000 M⁻¹ s⁻¹; Response [17]: 0.574; Response [18]: 0.0221
B3,0.214 µM,0.00714 s⁻¹,33300 M⁻¹ s⁻¹,0.589,1.14,0.989,0.8,0.297 µM,0.00638 s⁻¹,21500 M⁻¹ s⁻¹,0.251,0.402,Kd [19]: 0.392 µM
B4,0.222 µM,0.00902 s⁻¹,40700 M⁻¹ s⁻¹,0.694,1.33,1.15,0.948,,,,0.306,0.473,
B5,0.123 µM,0.0167 s⁻¹,136000 M⁻¹ s⁻¹,0.63,1.07,0.956,0.821,,,,0.298,0.442,
